Measured values as given in a collection of fitness landscapes (doi:10.1016/j.celrep.2020.107928).
In all, about 81,000 sequences were measured (“one-hybrid fitness for binding NBS DNA”: median about -0.1, highest 2% from about 0.36 on). Some of the results follow.

B1: Caulobacter ParB omega fusion; a variant is named by its letters at X, in order, B8GW30 (parent)
chain: MESVVVGEPGMSEGRRGLGRGLSALLGEVDAAPAQAPGEQLGGSREAPIEILQRNPDQPRRTFREEDLEDLSNSIREKGVLQPILVRPSPDTAGEYQIVAGERAWRAAQRAGLKTVPIMVRELDDLAVLEIGIIENVQRADLNVLEEALSYKVLMEKFERTQENIAQTIGKSXSHVANXMRLLXLPDEVQSYLVSGELTAXHARAIAAAADPVALAKQIIEGGLSVRETEALARKAPNLSAGKSKGGRPPRVKDTDTQALESDLSSVLGLDVSIDHRGSTGTLTITYATLEQLDDLCNRLTRGI

Variants of: B1
Test: one-hybrid fitness for binding NBS DNA (the Noc-binding site; scaled: cognate 1, non-cognate 0); higher = stronger binding
Conditions: with NBS DNA site
Summary of the method: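 Values were rescaled so that cognate is 1 and non-cognate is 0. Each is a fitness, the log change in a variant's read ratio to wild type from Illumina reads of plasmids before and after selection, with three replicate libraries pooled and variants under 10 reads dropped. Selection of the Caulobacter ParB libraries, four specificity codons randomised, used E. coli USO with a HIS3 reporter, site 19 bp from the promoter, on M9-minus-histidine with 0.1 mM IPTG and 5 mM 3-AT for 48 hours at 37°C.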

Variant	one-hybrid fitness for binding NBS DNA
CMTC	≤ 0.2
SYAY	≤ 0.2
NKED	≤ 0.2
TVRL	≤ 0.2
RVGG	≤ 0.2
DRPS	≤ 0.2
FVDR	≤ 0.2
FCRG	≤ 0.2
MSRS	≤ 0.2
CEVW	≤ 0.2
IWNS	≤ 0.2
DALE	≤ 0.2
LPQC	≤ 0.2
EQDT	≤ 0.2
RTPD	≤ 0.2
LLHC	≤ 0.2
PGVC	≤ 0.2
SAPD	≤ 0.2
SSMR	≤ 0.2
KITY	≤ 0.2
SVHD	≤ 0.2

Variant	one-hybrid fitness for binding NBS DNA
LKGL	≤ 0.2
QTLW	≤ 0.2
QAFQ	≤ 0.2
RQRQ	≤ 0.2
WTSS	≤ 0.2
WVNS	≤ 0.2
MYHY	≤ 0.2
MGLY	≤ 0.2
IGCR	≤ 0.2
PWGK	≤ 0.2
KLSC	≤ 0.2
TRQF	≤ 0.2
ETNE	≤ 0.2
YRML	≤ 0.2
TSDG	≤ 0.2
DYCG	≤ 0.2
QNLL	≤ 0.2
NDKC	≤ 0.2
HYPG	≤ 0.2
NLRS	≤ 0.2
NNLM	≤ 0.2

Variant	one-hybrid fitness for binding NBS DNA
DYLG	≤ 0.2
QNSS	≤ 0.2
PKYW	≤ 0.2
IIAT	≤ 0.2
PISV	≤ 0.2
KRWD	≤ 0.2
RKDQ	≤ 0.2
CWKY	≤ 0.2
LNYR	≤ 0.2
RSNP	≤ 0.2
YLKH	≤ 0.2
PSHF	≤ 0.2
PMNR	≤ 0.2
NFPI	≤ 0.2
LGDL	≤ 0.2
SKYY	≤ 0.2
CEQI	≤ 0.2
WGAR	≤ 0.2
CPTC	≤ 0.2
KMRF	≤ 0.2
QSFI	≤ 0.2

Variant	one-hybrid fitness for binding NBS DNA
MKHC	≤ 0.2
AYTE	≤ 0.2
PQNL	≤ 0.2
TCVS	≤ 0.2
SLNY	≤ 0.2
QNCC	≤ 0.2
KALP	≤ 0.2
PNHM	≤ 0.2
SHSA	≤ 0.2
QTMQ	≤ 0.2
KSPI	≤ 0.2
RTIK	≤ 0.2
MLPL	≤ 0.2
DQRF	≤ 0.2
TFGD	≤ 0.2
SEVF	≤ 0.2
KRCY	≤ 0.2
PHLS	≤ 0.2
QQPF	≤ 0.2
PPTD	≤ 0.2
TQWV	≤ 0.2
